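Interpolation was linear, between the two tested concentrations surrounding the appropriate level; five concentrations were tested over 48 hours in 96-well plates. Abbreviation: GI50, concentration required for 50% inhibition of growth.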 The source made the active and inactive calls. Rule as the data show it: active = GI50 up to about 1.1 µM and inactive = higher. Bounds are passed on as bounds.

These results are taken from ChEMBL document CHEMBL1201862, “PubChem BioAssay data set” (2004).

The assay deals with NCI-H322M. Put plainly: NCI tumour cell line growth inhibition, 48 h.
For `COc1ccc(C(=O)Nc2ccccc2)cc1[N+](=O)[O-]`, the GI50 is inactive: > 100 µM.
Then `Nc1nc(N)c2nn(-c3ccc(C(=O)O)cc3)nc2n1`, with inactive: > 100 µM; and `O=C1c2ccccc2/N=C(/c2cc3c(cc2Cl)Sc2nccn2S3(=O)=O)OS(=O)(=O)N1c1ccccc1`, with inactive: 12.6 µM.
As for `O=[N+]([O-])c1cc(Cl)cc2c1nc(NCCO)c1ccccc12`, the figure is inactive: 6.55 µM; as for `Oc1c(Br)cc(Br)cc1CN(Cc1cc(Br)cc(Br)c1O)C1CCCCC1`, inactive: 51.8 µM; as for `O=[N+]([O-])c1cccnc1S(=O)(=O)c1ccccc1`, inactive: 21.3 µM.
Then `C=C(C)c1nc(Oc2ccccc2)nc(Oc2ccccc2)n1`, with inactive: 17.2 µM; and `O=CC(O)C(O)C1OC(=O)c2cc(O)c(O)c(O)c2C2=C(O)C(O)=C3OC(=O)c4c(c(O)c(O)c5c4C3C2C(=O)O5)-c2c(cc(O)c(O)c2O)C(=O)OCC1O` (configuration not stated), with inactive: 29.6 µM; and `O=C1N(c2ccccc2)C2(O)C(=O)c3ccccc3C2(O)N1c1ccccc1` (configuration not stated), with inactive: > 100 µM.
On to `CN(CCCNC(=O)c1cn(C)c2c1ccc1ccccc12)CCCNC(=O)c1cn(C)c2c1ccc1ccccc12`, for which the GI50 is inactive: 3.13 µM.
Turning to `O=C1OC(C2Cc3ccc4ccccc4c3C2=O)c2ccccc21` (configuration not stated), the GI50 is inactive: 34.8 µM.
Then `O=c1cc(NNc2ccc3ccccc3c2)[nH]c(=S)[nH]1`, with inactive: > 100 µM.
Turning to `Cc1c2c(n3c(nc4ccccc43)c1C#N)N(c1ccc(F)cc1)CC2`, the GI50 is inactive: > 100 µM.
As for `NC(=O)NNc1nc2ccccc2c(=O)n1NC(=O)C(=O)Nc1ccc(Cl)cc1Cl`, the figure is inactive: > 100 µM.
As for `CCOC(=O)O/C(=C\c1ccc(OC)cc1)c1c(OC(=O)OCC)n(C(=O)OCC)c2ccccc12`, the figure is inactive: 35.1 µM; as for `COc1ccc2c(c1)c(=O)c1c(NCCN(C)C)ccc3c(=O)n(CCN(C)C)c(=O)n2c31`, active: 0.04 µM.
Take `COc1ccc2nc3c([N+](=O)[O-])ccc4c3c(c2c1)N=CN4CCCN(C)C`: the GI50 was active: 0.957 µM.
Take `CCCSc1cc(Cl)c(C)cc1S(=O)(=O)n1ccnc1OCCCN(C)C`: the GI50 was inactive: > 100 µM.
Then `COc1ccc2c(c1)OC[C@@H]1c3cc(O)c(OCc4ccccc4)cc3O[C@H]21`, with inactive: 38 µM.
As for `CCC1CN2CCc3cc(OC)c(OC)cc3C2CC1CC1c2cc(OC)c(OC)cc2CCN1C(=O)CNC(=O)OC(C)(C)C` (configuration not stated), the figure is inactive: 4.46 µM; as for `NNC(=S)N/N=C(\CCCC(=O)NCCc1ccccc1)CC(=O)c1ccccc1`, inactive: > 100 µM; as for `Nc1ccccc1/C(O)=C1/CCOC1=O`, inactive: > 100 µM.
On to `CSCCC(NC(=O)Cc1ccc(C(=O)c2ccccc2)cc1)C(=O)O` (configuration not stated), for which the GI50 was inactive: > 100 µM.
As to `CN(C)CCNC(=O)c1cccc2nc(-c3ccccc3)oc12`, the GI50 is inactive: 36.2 µM.
`O=C(/C=C/c1ccc(Cl)cc1)c1ccncc1`: the GI50 is inactive: 67 µM.
As for `CCN(CC)Cc1cc(Nc2c3ccccc3nc3c2[nH]c2ccccc23)cc(CN(CC)CC)c1O`, the figure is active: 0.8 µM; as for `COc1ccc(-c2nc(Sc3c([N+](=O)[O-])ncn3C)n[nH]2)cc1`, inactive: 7.66 µM; as for `Fc1ccc2nc3n(c2c1)C(c1c(Cl)cccc1Cl)SC3` (configuration not stated), inactive: > 100 µM.
As for `CC(=O)C1(c2ccccc2)CCCN(C)CC1` (configuration not stated), the figure is inactive: > 100 µM; as for `COc1cc(C2SCC(=O)N2c2cc(Cl)c(Cl)cc2Cl)cc(OC)c1OC` (configuration not stated), inactive: 36.8 µM.
On to `CC12CCCC3(CC(=O)C(C)(C)C3C(=O)C1)C2` (configuration not stated), for which the GI50 was inactive: > 100 µM.
As for `COC1CC2C=CC3C4OC2(/C(C)=C/C(C)C(C(C)O)OC1=O)C3C(O)C(C)C4OC(=O)c1ccc[nH]1` (configuration not stated), the figure is inactive: > 100 µM; as for `Cc1ccc(C(=O)C(C2=Nc3nnc(N)n3C2=O)C2=Nc3nnc(N)n3C2=O)cc1`, inactive: > 100 µM; as for `COc1ccc(C2=Nc3ccccc3N=C(SC)C2)cc1`, inactive: > 100 µM.
Then `COC(=O)C(C/C=C(\C)c1ccccc1)C(C)=O` (configuration not stated), with inactive: > 100 µM; and `O=S1(=O)OCCOS(=O)(=O)C1Br`, with inactive: > 100 µM.
Then `Cc1cccc(C(C)(C)C)c1NC(=O)C(=O)Cc1nc2ccccc2s1`, with inactive: > 100 µM; and `CC1NC(/C(=C/c2ccccc2O)NC(=O)c2ccccc2)OC1=O` (configuration not stated), with inactive: > 50 µM.
Turning to `N#C/N=C(/N)NCO`, the GI50 is inactive: > 100 µM.
Then `CC(=O)Nc1ccccc1S(=O)(=O)c1c(-c2c(C)c(Cl)c(C)c(Cl)c2C)noc1C`, with inactive: 75.7 µM.
Turning to `NC1=C(N2CCOCC2)C(=O)NC2=N/C(=C\c3ccccc3)C(=O)N21`, the GI50 was inactive: > 100 µM.
As for `O=C(CN(c1ccccc1)c1ccccc1)n1nnc2ccccc21`, the GI50 was inactive: 97.7 µM.
For `CCCCCn1c(=O)c2c(=O)[nH][nH]c2c2ccccc21`, the GI50 was inactive: > 100 µM.
Take `CC(C)c1ccccc1NC(=O)CCc1n[nH]c(=S)o1`: the GI50 was inactive: > 100 µM.
Then `[N-]=[N+]=NC1CC(n2cc(COCC(F)(F)F)c(=O)[nH]c2=O)OC1CO` (configuration not stated), with inactive: > 100 µM; and `C#CC[C@]12CC(=O)CC[C@H]1CC1(C2)OCCO1`, with inactive: > 100 µM.
As for `COc1ccccc1NC(=O)C1=C(C)NC(C)=C(C(=O)Nc2ccccc2OC)C1c1ccccc1[N+](=O)[O-]`, the figure is inactive: 39.9 µM.
With `Cc1ccc(C#CS(=O)(=O)C(F)(F)F)cc1`, the GI50 was inactive: > 100 µM.
As for `COC(CNC(=O)CNC(=O)c1ccc(C(F)(F)F)cc1)OC`, the figure is inactive: > 100 µM.
Then `C=CCN(c1cc(OC)c2[nH]c(C(=O)O)c(C)c2c1[N+](=O)[O-])S(C)(=O)=O`, with inactive: > 100 µM; and `CC(=O)Nc1ccc(/C=C(\NC(=O)c2ccccc2)C(=O)NNS(=O)(=O)c2ccc(C)cc2)cc1`, with inactive: > 100 µM; and `N=c1oc2ccc(Cl)cc2cc1C(=O)NCc1ccccc1`, with inactive: > 100 µM.
Take `CC12O[Te]34OC1(C)C(C)(O3)C2(C)O4`: the GI50 is inactive: 12.5 µM.
Then `C[C@@H]1OC(=O)/C(=C\N(C)C)[C@H]2CC(=O)N(CCc3cn(S(=O)(=O)C(F)(F)F)c4ccccc34)C[C@H]12`, with inactive: > 100 µM.
`COc1cc(C(=O)O[C@@H]2[C@@H](OC(=O)c3cc(OC)c(OC)c(OC)c3)[C@@H](OC)O[C@@H]3CO[C@@H](c4ccccc4)O[C@@H]23)cc(OC)c1OC`: the GI50 is inactive: > 100 µM.
As for `S=c1nc2[nH]c3ccc(Br)cc3c2n[nH]1`, the figure is inactive: 84.5 µM.
As for `COc1ccccc1CNCc1nc2ccccc2[nH]1`, the GI50 is inactive: > 100 µM.
As for `C=C1C(=O)OC2C1CC1OC2C(C)CCC/C(C)=C\CCC1(C)O` (configuration not stated), the figure is inactive: 37.8 µM; as for `CC(=O)Oc1ccc2c(c1)oc1c3ccc(OC(C)=O)cc3n(C)c(=O)c21`, inactive: 11.6 µM.
Turning to `COC(=O)[C@]12CC=C3O[C@@H]4OC5(CCCCC5)O[C@@H]4[C@H]3C1C(=O)C=CC2=O` (some centres not stated), the GI50 is inactive: 20.9 µM.
As for `O=c1cnnc2sc(=S)[nH]n12`, the GI50 is inactive: > 100 µM.
As for `COC(=O)/C(C#N)=C1\CCC(OC)N1` (configuration not stated), the figure is inactive: > 100 µM; as for `Cc1csc(NNC(N)=O)n1`, inactive: > 100 µM; as for `Cn1c(=O)[nH]n(-c2ccc3ccccc3c2)c1=O`, inactive: > 100 µM.
As to `CSC1(C)C(=O)Nc2c(OCc3ccccc3)cc([N+](=O)[O-])cc21` (configuration not stated), the GI50 was inactive: 36.1 µM.
As for `Nn1c(S)nnc1COc1cccc(OCc2nnc(S)n2N)c1`, the figure is inactive: > 100 µM; as for `S=C(Nc1ccccc1)c1ccc(CN2CCCCC2)s1`, inactive: 28.6 µM; as for `CC1=Nc2ccccc2C12C(c1ccccc1)C(c1ccccc1)C(=O)N1c3ccccc3CC12` (configuration not stated), inactive: > 100 µM.
As for `C1=C[C@]2(CCC13OCCO3)COc1ccccc12`, the figure is inactive: 44.7 µM; as for `COc1ccc(C2=C(Cl)C(=O)O/C2=C\c2ccc(OC)c(Br)c2)cc1Cl`, inactive: > 100 µM; as for `c1ccc(SC2CCSc3ccccc3C2Sc2ccccc2)cc1` (configuration not stated), inactive: > 100 µM.
Turning to `O=C(CC1(O)C(=O)Nc2ccccc21)c1ccc(O)cc1O` (configuration not stated), the GI50 is inactive: > 100 µM.
`O=C1OS2(OCc3cccc4cccc2c34)c2ccccc21` (configuration not stated): the GI50 is inactive: > 100 µM.
`Cc1cc(N)c2cc(NC(=O)CCCCCCCCC(=O)Nc3ccc4nc(C)cc(N)c4c3)ccc2n1`: the GI50 is inactive: 58.6 µM.
Turning to `CC1=CC2CC(C)C1(C)CCc1ccoc12` (configuration not stated), the GI50 is inactive: > 100 µM.
As for `CC(=O)OCC1=C(C(=O)O)N2C(=O)C(NC(=O)CSc3ccncc3)C2SC1` (configuration not stated), the figure is inactive: > 100 µM; as for `Cc1c(O)c(OC2OC(CO)C(O)C(O)C2O)cc2c1CC[C@@H]1C2(C)C(=O)C[C@]2(C)[C@@H]([C@@](C)(O)C(O)/C=C/C(C)(C)O)[C@H](O)C[C@@]12C` (some centres not stated), inactive: > 100 µM.
Then `C=C1C(=O)C23CC1C[C@H](OC(C)=O)[C@H]2C1(C)C(OC(C)=O)C[C@H](O)C(C)(C)[C@H]1C(=O)[C@@H]3OC(C)=O` (some centres not stated), with inactive: 15.1 µM.
Then `COCC1N=C(c2cc(OC)c(OC)c(OC)c2-c2cc3c(cc2C2OCCCO2)OCO3)O[C@H]1c1ccccc1` (some centres not stated), with inactive: > 100 µM; and `COc1ccc2[nH]c3ccc4cc[n+](CCN5CCC(C6CCN(CC[n+]7ccc8ccc9[nH]c%10ccc(OC)cc%10c9c8c7)CC6)CC5)cc4c3c2c1`, with inactive: 19.5 µM.
With `Cc1cn([C@@H]2C[C@H](CO)[C@@H](O)C2)c(=O)[nH]c1=O`, the GI50 is inactive: > 100 µM.
As for `c1ccc2c(c1)[nH]c1c2ncc2[nH]c3ccccc3c21`, the figure is inactive: 2.52 µM.
